Results on 219 sequences are retold here after paper PMC4242493.

The list shows a part of the results. The list includes weakly bound sequences.

In the test the target is MaxL homodimer (UniProt P61244). As to the kind of experiment: universal protein-binding microarray (PBM). To be noted: PBS-based mixture, 10 nM His-tagged protein dimer, 2% milk, 200 ng/uL BSA, 50 ng/uL salmon testes DNA, 0.02% TX-100; detection with Alexa 488 anti-His …; high values mean tight binding; most listed sequences are background and not binding sites; double strand, one strand shown.
UniProt P61244, sequence (P61244 whole entry): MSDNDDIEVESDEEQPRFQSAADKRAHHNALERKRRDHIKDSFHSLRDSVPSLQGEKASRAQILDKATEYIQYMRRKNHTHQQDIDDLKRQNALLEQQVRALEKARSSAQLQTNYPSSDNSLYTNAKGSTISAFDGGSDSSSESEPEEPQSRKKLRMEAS
As to ATTAGCAG, the binding signal (normalized occupancy) turned out to be 0.075.
Take GTGCTCGA: the binding signal (normalized occupancy) is 0.0761.
For TAGTTTGA the value was 0.0723; for GGAAATCC, 0.0712.
For ATAGGTGA, the binding signal (normalized occupancy) is 0.0833.
As for CCGCACAG, the figure is 0.0705; as for CCGGCTGA, 0.0672.
For AGTTCAAG the value was 0.0686; for AGCAGTCG, 0.068.
As for GCAGCTCC, the figure is 0.0685; as for CGAGGGAA, 0.0785.
Take GCATGCAC: the binding signal (normalized occupancy) was 0.11.
As for CGCAGAAG, the figure is 0.0673; as for ATTTCGAA, 0.0735.
For CACACCGC, the binding signal (normalized occupancy) is 0.0826.
In the case of GTACTCTA, the binding signal (normalized occupancy) came out at 0.0757.
For CAGGCGTC the value was 0.0727; for ACCACCTA, 0.082; for AACAAACG, 0.0769.
For CCCAGTCA the value was 0.0744; for GACCGAGC, 0.0684.
For AACGCGGA the value was 0.0818.
As for CAGGAGCG, the binding signal (normalized occupancy) came out at 0.0709.
For CCCTTACA the value was 0.0789; for GCTCTGCA, 0.0703.
As for ATCCAAGA, the figure is 0.0702; as for TCGGTGAA, 0.0747; as for TTCCAGAA, 0.0713.
As for ACTCTCAA, the figure is 0.0735; as for ATGCATCC, 0.0863.
Regarding CATAGACC, the binding signal (normalized occupancy) worked out at 0.0735.
Regarding AGTGTGGC, the binding signal (normalized occupancy) is 0.0795.
Take ACAGAAAC: the binding signal (normalized occupancy) is 0.0709.
For CTAGGTCC the value was 0.0723.
For GGTGACCA the value was 0.0763; for TGATGAAA, 0.0725.
As for AATCTCTC, the figure is 0.0762; as for ACAGTATC, 0.0818; as for ATTTAAGG, 0.0701.
For the sequence ACCATTAC, the binding signal (normalized occupancy) was 0.0833.
For CTTGACCC the value was 0.0669.
AACGCTCC: the binding signal (normalized occupancy) came out at 0.0724.
For CATGTTAC the value was 0.0921.
As for ACCACAAA, the figure is 0.0758; as for AACTACGG, 0.0714; as for AGATCAAA, 0.0729.
In the case of ACATGAAA, the binding signal (normalized occupancy) was 0.0847.
As for GATAACTA, the figure is 0.0766; as for CAAGACTA, 0.0731; as for CTGTATTA, 0.0783.
Turning to GGGAGGTA, the binding signal (normalized occupancy) amounted to 0.0765.
As for AAGGCCAT, the figure is 0.083.
As for ATACTGGG, the figure is 0.0746.
As for CTTTTATC, the figure is 0.0743.
On to GCGGTCCA, for which the binding signal (normalized occupancy) turned out to be 0.0728.
For ATGGCCAT, the binding signal (normalized occupancy) stood at 0.0853.
For GAAAGATC the value was 0.0746.
As for AAGGCGAC, the figure is 0.0723; as for TAACCGTA, 0.0779; as for ACTTGGTC, 0.0713.
As for CCCAAGCC, the figure is 0.073; as for AATCAAGG, 0.0756; as for ACGCAAAT, 0.0748.
In the case of ACACCACC, the binding signal (normalized occupancy) is 0.086.
As for CCTATGCA, the figure is 0.0852.
As for CTCGACCA, the figure is 0.0708; as for TCCAAAAA, 0.0776; as for CCCGCGCG, 0.0753.
For TAAGTAGA the value was 0.0722; for AGATAACG, 0.0827; for CTTGAACC, 0.0766.
Take CGCAACGA: the binding signal (normalized occupancy) stood at 0.0716.
As for ACTTAAAC, the figure is 0.0743; as for GCATCTGA, 0.0776; as for AGCCCTAC, 0.0714.
For CGCGTTAC, the binding signal (normalized occupancy) worked out at 0.0854.
For CCCGCTAG the value was 0.069.
For TAAAGGTA the value was 0.0734; for CGACAGGA, 0.0749.
As for ACCTCCGT, the figure is 0.0689; as for TTCTTCAA, 0.071; as for ACGAGAGC, 0.0714.
As to GGAAGAAA, the binding signal (normalized occupancy) stood at 0.0704.
For GCGGTCCC, the binding signal (normalized occupancy) turned out to be 0.0662.
As for AGCGCCCC, the figure is 0.0711; as for CTTTAGCA, 0.0732; as for AGTTTTAA, 0.0717.
Take GCGCCTCA: the binding signal (normalized occupancy) came to 0.0681.
As to CTCTTACA, the binding signal (normalized occupancy) amounted to 0.0785.
For the sequence GTCTCTCA, the binding signal (normalized occupancy) turned out to be 0.0721.
As for CCTTCATA, the figure is 0.0746; as for GTAATGCA, 0.0819; as for AGTAGCCC, 0.0736.
Consider TACCACCA, for which the binding signal (normalized occupancy) turned out to be 0.0811.
As for ACAATCCA, the binding signal (normalized occupancy) was 0.0737.
As for GTGCTCTA, the figure is 0.078.
As for GACGACCC, the figure is 0.0731; as for CCTCAATA, 0.0821.
On to CTATGAGA, for which the binding signal (normalized occupancy) was 0.0748.
For CGGCCAAA the value was 0.0678; for AACAGATT, 0.0721; for AACTTCCT, 0.0757.
As for AGAATTAC, the figure is 0.076; as for CCCCGATC, 0.0735.
For AGGACAGC the value was 0.0734.
On to ATCAGACG, for which the binding signal (normalized occupancy) stood at 0.0719.
As for CTAAGCCC, the figure is 0.0716.
As for ACGCCCCA, the figure is 0.0761.
As for CGCGGTTA, the figure is 0.0774.
On to AGAAAAGA, for which the binding signal (normalized occupancy) came out at 0.0759.
As for CTACCCAG, the figure is 0.0778; as for CAGCATCC, 0.0746.
As for CTTGGAAA, the figure is 0.073; as for CGATTTAA, 0.071.
As for ACATGCAA, the figure is 0.0826; as for CCAATCCA, 0.071.
With CCTTAGCG, the binding signal (normalized occupancy) was 0.0683.
For AACAACAC the value was 0.0845; for ACGTGAAC, 0.0842.
GCAATCTA: the binding signal (normalized occupancy) turned out to be 0.0722.
For CACCATCG the value was 0.0762.
Regarding AGGAGACC, the binding signal (normalized occupancy) was determined as 0.0785.
With ATACGAAA, the binding signal (normalized occupancy) came out at 0.0771.
As for AACCCCGA, the figure is 0.0806.
For GCCGGTCA the value was 0.0714; for CCGCGTCG, 0.0731; for CAGTGTAA, 0.073.
With ACTAAAAC, the binding signal (normalized occupancy) stood at 0.0757.
On to ACCTATCA, for which the binding signal (normalized occupancy) turned out to be 0.0809.
For ACTATTCC, the binding signal (normalized occupancy) is 0.078.
Consider ATATAATG, for which the binding signal (normalized occupancy) was found to be 0.0845.
As for GCAGCAAA, the figure is 0.0697; as for ACCCTTAC, 0.0789; as for ACAAGGCA, 0.0809.
Turning to CATGCATC, the binding signal (normalized occupancy) was 0.0997.
For CTGGCTTC the value was 0.0686; for AACCACGT, 0.123.
As for AGGTTGCC, the figure is 0.0768; as for AAATCGAA, 0.0795; as for ACCCATAA, 0.0823.
For AGGTCCTG the value was 0.0728.
Take GTTGCATA: the binding signal (normalized occupancy) came to 0.0786.
For CAAATGCG the value was 0.0791.
As for AGAGGGCT, the figure is 0.0677; as for AAGAATGT, 0.0745; as for CATCCTGG, 0.0785.
With GGAGGTTA, the binding signal (normalized occupancy) came out at 0.0765.
Regarding TGAGCACA, the binding signal (normalized occupancy) came out at 0.0887.
As for AAAGCACT, the figure is 0.0757.
For CTGCGGGA the value was 0.0645; for AGCACTTC, 0.0743.
Turning to CCCCCTCC, the binding signal (normalized occupancy) was 0.0782.
For CATGCGAC the value was 0.109; for AAAAATCC, 0.0734; for TGAGGTAA, 0.0764.
For GAGGGCCA the value was 0.0686; for ATGCAATG, 0.08; for TAACGCGA, 0.0699.
As for GGAAACCA, the figure is 0.0727; as for CTGAAAAA, 0.0723.
In the case of ACGTTGTC, the binding signal (normalized occupancy) was 0.0927.
As for GCAAAACA, the figure is 0.0735.
As for CATGAGGG, the figure is 0.109; as for CTCAATTA, 0.0702; as for ATCAGACA, 0.0792.
For CCGGTATA the value was 0.0795; for CGCATCGC, 0.0705.
As for AGGCCCCA, the binding signal (normalized occupancy) was 0.0721.
As for GCTGATGA, the binding signal (normalized occupancy) worked out at 0.0748.
For ATGTCGTG the value was 0.0811.
For AAGCGGCG the value was 0.0653; for CAAAGGGA, 0.0728.
As for AAGAAAGT, the figure is 0.0686; as for ACAAGATG, 0.0779.
In the case of CCGAGCGG, the binding signal (normalized occupancy) came out at 0.0693.
As for ACACGCCA, the figure is 0.0895; as for ATGCGAAG, 0.079; as for AAGCAGTC, 0.075.
As to GTCACGCA, the binding signal (normalized occupancy) is 0.0927.
As for AATCCTAA, the figure is 0.077; as for CCAGCTAA, 0.0694; as for AGCGAAAA, 0.0646.
As for ACCTCAAA, the figure is 0.0749; as for TCTTCCCA, 0.0768; as for AGGCTTCC, 0.0708.
Consider AGTTGAGC, for which the binding signal (normalized occupancy) came to 0.0748.
As for CTGTTTCA, the figure is 0.0741.
Turning to ATTAAGGA, the binding signal (normalized occupancy) is 0.0744.
As for CCGCCCTC, the figure is 0.0714.
For ATTGGTCA the value was 0.0779; for AAGTATAA, 0.0823; for ATGGGTGC, 0.0876.
As for ATGTGTAG, the figure is 0.0906; as for AAGGTACC, 0.0691.
For the sequence AACTCTCC, the binding signal (normalized occupancy) was 0.0732.
As for CCCCTAAC, the figure is 0.0774.
Take CGCCAATA: the binding signal (normalized occupancy) was found to be 0.0801.
As for AGTACTAG, the figure is 0.0705; as for CTGTTATA, 0.0805; as for AAGGCCCG, 0.0664.
As for AGGTTTTC, the figure is 0.0736; as for TGTATTAA, 0.0758.
For ATCTGATG the value was 0.0779; for GGTGGTGA, 0.0762.
With GAGCCGGC, the binding signal (normalized occupancy) amounted to 0.0679.
Turning to AACCGCAT, the binding signal (normalized occupancy) amounted to 0.0887.
As for AAAGCCCG, the figure is 0.0682.
As for ACACAGAA, the figure is 0.0706; as for GAGTCCCC, 0.0739.
For CTGCGGTC the value was 0.0645.
Consider CGATGGAG, for which the binding signal (normalized occupancy) stood at 0.0744.
As for GATATCGC, the figure is 0.0783.
As for CTGCTAGA, the figure is 0.0711; as for AGCAACTC, 0.0723; as for GACTATCA, 0.078.
For ACAGTAGA the value was 0.0759; for CTAACTGA, 0.0678; for AACATCCA, 0.0849.
GTCTACAA: the binding signal (normalized occupancy) stood at 0.0691.
